Measured values: PubChem BioAssay AID485294 (National Center for Advancing Translational Sciences (NCATS), 2010)
Out of some 370,000 compounds screened, about 150 (0.041%) were called active. The shares of active, inactive and inconclusive entries below differ from those in the screen. The call rests on the fitted dose curve; in most records, active means well fitted inhibition curve with a large enough effect; inconclusive means small, poorly fitted or top-dose-only effect; inactive means flat fitted curve, though single readings scatter. No potency is given beside an inconclusive call; the fits are too rough.

target: Beta-lactamase (Escherichia coli (strain K12)) (UniProt P00811); experiment: qHTS Inhibitors of AmpC Beta-Lactamase (assay with detergent); settings: AmpC hydrolysis of nitrocefin, absorbance 480 nm, 0.01% Triton; series mostly up to 114 µM; further: nearly all actives have a fitted effect of over 25% in size
How it was run: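 20 mM phosphate pH 7.0 + 0.01% (detergent screen) or 0.0001% Triton X-100; 5.3 nM AmpC reagent; cpd preinc 15 min RT; nitrocefin (800 uM stock) to start; A480 q20 s × 4 min; Activity was normalised to no-enzyme and no-compound control wells.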
Potency means the concentration at half of the fitted maximal effect; tags describe the fitted curve by direction and shape.

Sequence of UniProt P00811 (P00811 whole entry, looked up): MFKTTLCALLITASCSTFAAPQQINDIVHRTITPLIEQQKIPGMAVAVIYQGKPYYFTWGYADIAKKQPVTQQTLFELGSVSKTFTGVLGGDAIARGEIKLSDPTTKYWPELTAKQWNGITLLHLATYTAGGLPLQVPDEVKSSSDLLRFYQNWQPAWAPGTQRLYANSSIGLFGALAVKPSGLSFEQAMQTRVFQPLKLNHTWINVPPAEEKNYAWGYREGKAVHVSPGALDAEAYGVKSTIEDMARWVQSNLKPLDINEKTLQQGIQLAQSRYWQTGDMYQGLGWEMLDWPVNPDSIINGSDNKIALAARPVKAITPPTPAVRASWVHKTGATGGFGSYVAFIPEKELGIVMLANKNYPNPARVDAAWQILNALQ

Compound | Potency
Cc1ccc2c(c1)-c1c(cnn1CC(=O)N1CCN(c3ccccc3F)CC1)CO2 | inactive
CCOC(=O)CSCC(=O)N1N=C(c2cccs2)CC1c1ccc(F)cc1 (stereo unspecified) | inactive
CS(=O)(=O)N1N=C(c2cccs2)CC1c1ccc(Cl)o1 (stereo unspecified) | inactive
COC(=O)C/C=C/[C@@H](C)[C@@H](/C=N/OC[C@@H](C)[C@H](OCc1ccccc1)C(C)C)NS(=O)(=O)c1ccc(C)cc1 | inconclusive [inhibitor, partial curve, poor fit]
CCn1c(=O)c(CCC(=O)NCCN2CCOCC2)c(C)c2c(C)nn(-c3ccccc3)c21 | inconclusive [inhibitor, full curve, poor fit]
O=C(c1ccc(S(=O)(=O)N2CCCCC2)cc1)N1CCc2ccccc2C1 | inactive
Cc1ccccc1-n1c(O)c(/C=N/NC(=O)c2ccccc2O)c(=O)[nH]c1=S | inactive
CCC(C)N(CCNC(=O)c1ccc(NC2=NC3CS(=O)(=O)CC3S2)cc1)Cc1ccco1 (stereo unspecified) | inactive
Cc1cccc(NC(=S)N2CCN(Cc3ccccc3)CC2)c1C | inactive
COc1ccc(CN(C(=O)c2cc3ccccc3oc2=O)C2CCS(=O)(=O)C2)cc1OC (stereo unspecified) | inactive
CCOC(CNC(=O)C(=O)Nc1cc2c3c(c1)CCN3C(=O)CC2)OCC | inactive
O=C(NCCCN1CCOCC1)C1COc2ccccc2O1 (stereo unspecified) | inconclusive [inhibitor, full curve, poor fit]
CC(C)c1ccccc1 | inactive
CCN(CC)C(=O)CSc1nnc(-c2c[nH]c3ccccc23)o1 | inconclusive [inhibitor, full curve, poor fit]
Cc1ccc2c(c1)N(C(=O)CCC(=O)NCCN1CCOCC1)CCO2 | inconclusive [inhibitor, single point]
Cn1c(NC2CCCCC2)cc(=O)n(C)c1=O | inconclusive [inhibitor, full curve, poor fit]
CCc1ccc(NC(=O)CSc2nc3ccccc3c(=O)n2CCCC(=O)N2CCCC2)cc1 | inconclusive [inhibitor, partial curve]
CC(=O)Nc1ccc(N(CC(=O)NC2CCCC2)C(=O)CCC(=O)Nc2cc(C)on2)cc1 | inconclusive [inhibitor, full curve, poor fit]
O=C(CSc1ccccn1)Nc1nc2ccc(Br)cc2s1 | inconclusive [inhibitor, full curve, poor fit]
CC(C)(C)c1ccc(OC(=O)c2ccccc2)cc1 | inactive
CCOC(=O)C1=C(C)NC(=O)NC1c1ccc(C)o1 (stereo unspecified) | inconclusive [inhibitor, full curve, poor fit]
CCOc1ccccc1NC(=O)c1nnn(-c2ccc3c(c2)OCCO3)c1N | inactive
Cc1ccc(S(=O)(=O)N(CC(=O)N=Nc2c(O)[nH]c3ccccc23)c2ccc(C)c(C)c2)cc1 | inconclusive [inhibitor, single point]
CCN(CCCc1ccccc1)CCCc1ccccc1 | inconclusive [inhibitor, single point]

Compound | Potency
Cc1nn(C)c(C)c1CCC(=O)N1CCCC(C(=O)c2cccc(OC(C)C)c2)C1 (stereo unspecified) | inconclusive [inhibitor, full curve, poor fit]
Cc1ccc2nc(NC(=O)CSc3nccn3-c3ccc(Cl)cc3)sc2c1 | inactive
C(#CCN1CCOCC1)COC(c1ccccc1)c1ccccc1 | inconclusive [inhibitor, single point]
O=C1OCCN/C1=C\C(=O)c1ccccc1 | inconclusive [inhibitor, single point]
Cc1c(NC(=O)C(C)OC(=O)CCc2c[nH]c3ccccc23)c(=O)n(-c2ccccc2)n1C (stereo unspecified) | inconclusive [inhibitor, partial curve, poor fit]
CCC1CCCCN1S(=O)(=O)c1ccc(C(=O)Nc2sc3c(c2C(N)=O)CCC3)cc1 (stereo unspecified) | inactive
CCOC(=O)C1C(=O)NC(N2CCCCC2)=NC1c1ccco1 (stereo unspecified) | inconclusive [inhibitor, full curve, poor fit]
CCCc1nc2ccccc2n1CC(O)COc1ccc(C(=O)OC)cc1 (stereo unspecified) | inactive
CCC(C)[C@H](NC(=O)Nc1ccc(S(N)(=O)=O)cc1)C(=O)O (stereo partly specified) | inconclusive [inhibitor, full curve]
CCc1ccc(CNC(=O)c2cc3ccccn3n2)cc1 | inactive
CCCC(=O)NCCCc1nc2ccccc2[nH]1 | inconclusive [inhibitor, full curve]
COC(=O)COc1ccc(S(=O)(=O)N2CCOCC2)cc1C | inconclusive [inhibitor, full curve, poor fit]
COC(=O)c1c(NC(=O)c2nc3ccccc3s2)sc2c1CCN(C(C)=O)C2 | inconclusive [inhibitor, full curve, poor fit]
CC1(C)CC(=O)C=C(NC2CCCCCCC2)C1 | inconclusive [inhibitor, full curve, poor fit]
Nc1ccccc1-c1nnc(-c2ccc(-c3ccccc3)cc2)o1 | inactive
Cc1ccc(NC(=O)c2c(C)nc3sc(C(=O)Nc4ccc(F)cc4)c(N)c3c2-c2ccc(C)o2)c(C)c1 | inactive
CCCOc1ccc(C(=O)NCC2OCCc3ccccc32)cc1 (stereo unspecified) | inactive
Cc1cc(Cl)ccc1OCC(=O)OCC(=O)Nc1ccc(F)c([N+](=O)[O-])c1 | inconclusive [inhibitor, single point]
CC(C)CC1NC(=O)N(CC(=O)NC2CCCCC2)C1=O (stereo unspecified) | inconclusive [inhibitor, full curve, poor fit]
O=C(N/N=C/c1ccc(-n2ccnc2)cc1)c1cccs1 | inactive
CCOc1ccc(CNC(=O)CCSCc2ccccc2F)cc1OC | inconclusive [inhibitor, single point]
CCOc1ccc(C(C)=O)cc1COc1ccc(-n2cnnn2)cc1 | inconclusive [inhibitor, full curve, poor fit]
Cn1c(CN2CCCC2)nc2cc(NS(=O)(=O)c3ccccc3)ccc21 | inconclusive [inhibitor, partial curve]
O=C(NCCO)c1c(O)c2cccc3c2n(c1=O)CC3 | inactive

Compound | Potency
Cc1cc(N/C=C/C(=O)c2cccs2)ccc1F | inconclusive [inhibitor, single point]
COc1ccc(OC)c(S(=O)(=O)NCCCN2CCCC2=O)c1 | inconclusive [inhibitor, full curve, poor fit]
CCCCNC(=O)CSc1nc2c(sc(=S)n2-c2cc(Cl)ccc2OC)c(=O)[nH]1 | inconclusive [inhibitor, full curve, poor fit]
Cc1cccc(Cn2c(Sc3nc(C)cs3)nc3c2c(=O)[nH]c(=O)n3C)c1 | inactive
CCOC(=O)C1CCN(C(=S)Nc2ccc(Cl)cc2C)CC1 | inconclusive [inhibitor, single point]
Cc1cc(C(=O)N/N=C2\CC(=O)CC(C)(C)C2)c(C)n1-c1ccccc1 | inactive
COC(=O)c1ccc(NC(=O)CSc2nc3ccc(N4C(=O)C5C6C=CC(C6)C5C4=O)cc3s2)cc1 (stereo unspecified) | inconclusive [inhibitor, full curve, poor fit]
CCCCN1C(C(=O)Nc2cc(C)on2)=C(O)c2ccccc2S1(=O)=O | inconclusive [inhibitor, full curve, poor fit]
CC(NCc1ccccc1C(F)(F)F)C(O)c1ccccc1 (stereo unspecified) | inactive
C=CCC(c1ccccc1)N(C(C)=O)c1ccco1 (stereo unspecified) | inactive
CCN1CCCC1CNCc1cccc(OC)c1OCc1ccc(F)cc1 (stereo unspecified) | inconclusive [inhibitor, full curve, poor fit]
Cc1ccc(Cn2cc(C(=O)c3ccc4c(c3)OCO4)c(=O)c3cc(C)ccc32)cc1 | inconclusive [inhibitor, partial curve]
COc1ccc(CCNC(=O)Cc2ccc(NS(=O)(=O)c3ccc(F)cc3)cc2)cc1OC | inconclusive [inhibitor, partial curve, poor fit]
Cc1cc2c(c(=O)n1CCN(C)C)C(c1ccncc1)C(C#N)=C(N)O2 (stereo unspecified) | inconclusive [inhibitor, partial curve, poor fit]
COC(=O)c1ccccc1NC(=O)c1ccc2c(c1)CC(C)O2 (stereo unspecified) | inconclusive [inhibitor, full curve, poor fit]
Nc1ccc(S(=O)(=O)NNC(=O)C(=O)NNc2ccccn2)cc1 | inactive
O=C(CN1C(=O)NC2(CCCC2)C1=O)N1CCN(S(=O)(=O)c2ccccc2)CC1 | inactive
COc1cc(NC(=O)Cc2ccc([N+](=O)[O-])cc2)c(C(=O)O)cc1OC | inconclusive [inhibitor, partial curve]
COCCNC(=O)CSc1nc(-c2ccccc2)[nH]c1-c1ccc(OC)cc1 | inactive
CCOc1ccccc1Nc1nc(-c2sc(NC(=O)c3cccc(Cl)c3)nc2C)cs1 | inactive
CCOC(=O)C1CCN(c2nc(-c3ccccc3)nc3c2oc2ccccc23)CC1 | inconclusive [inhibitor, single point]
CC(=O)N1CCC(=NNC(=O)c2cccs2)CC1 | inconclusive [inhibitor, partial curve]
CSc1ccccc1NS(=O)(=O)c1ccccc1 | inconclusive [inhibitor, full curve, poor fit]
